# Assay results from the supplement of paper PMC7125110.
# Variants at the background level are over-represented here.
# B1: glmS ribozyme (parent)
# chain: AUAAAAGCGCCAGAACUACAGAAAUGUAGUUGACGAGGAGGAGGUUUAUCGAAUUUUCGGCGGAUGCCUCCAAA
# Key:
# Conditions in all cases: with glucosamine-6-phosphate
# glucosamine-6-phosphate [1] = variants of: B1; experiment: self-cleavage kobs at 640 uM GlcN6P; higher = faster cleavage; RNA array
# Procedure, shortened: (§1)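 On sequenced MiSeq chips, barcoded ribozyme variants were made in situ by E. coli RNA polymerase and followed at 37 °C through a hybridised Cy3 probe. Glucosamine-6-phosphate was flowed in at 40 μM to 10 mM in HEPES/KCl/Mg(OAc)2 buffer. Exponential fits to normalised per-tile medians gave kobs, and weighted Michaelis–Menten fits gave kcat and KM.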
# glucosamine-6-phosphate [2] = variants of: B1; experiment: self-cleavage kobs at 160 uM GlcN6P; higher = faster cleavage; RNA array
# Procedure, shortened: as §1
# glucosamine-6-phosphate [3] = variants of: B1; experiment: self-cleavage kobs at 2500 uM GlcN6P; higher = faster cleavage; RNA array
# Procedure, shortened: as §1
# glucosamine-6-phosphate [4] = variants of: B1; experiment: self-cleavage kobs at 10000 uM GlcN6P; higher = faster cleavage; RNA array
# Procedure, shortened: as §1
Variant,self-cleavage kobs at 640 uM GlcN6P (glucosamine-6-phosphate [1]),self-cleavage kobs at 160 uM GlcN6P (glucosamine-6-phosphate [2]),self-cleavage kobs at 2500 uM GlcN6P (glucosamine-6-phosphate [3]),self-cleavage kobs at 10000 uM GlcN6P (glucosamine-6-phosphate [4])
AUAAAAGCGCCAGAACUACAGAAAUGUAGUUGAAGAGGAGGAGGUUUUUCGAAUUUUCGGCGGAUGCCUCCAAA [C34A A48U],< 1e-05 s⁻¹,< 1e-05 s⁻¹,< 1e-05 s⁻¹,< 1e-05 s⁻¹
AUAAAAGCGCCAGAACUACAGAAAUGUAGUUGAUGGGGAGGAAGUUUAUCGAAUUUUCGGCGGAUGCCUCCAAA [C34U A36G G43A],< 1e-05 s⁻¹,,,
AUAAAAGCGCCAGAACUACAGAAAUGUAGUUGAUGAGGAGGAGGUUUAACGAAUUUUCGGCGGAUGUCUCCAAA [C34U U49A C67U],< 1e-05 s⁻¹,,< 1e-05 s⁻¹,
AUAAAAGCGCCAGAACUACAGAAAUGUAGUUGACCAGGAGGAGGUUUAUGGAAUUUUCAGCGGAUGCCUCCAAA [G35C C50G G59A],< 1e-05 s⁻¹,,,
AUAAAAGCGCCAGAACUACAGAAAUGUAGUUGGGGAGGAGGAGGUUUAACGAAUUUUCGGCGGAUGCCUCCAAA [A33G C34G U49A],< 1e-05 s⁻¹,,,
AUAAAAGCGCCAGAACUACAGAAAUGUAGUUGUCGAGGAGGAGUUUUAUUGAAGACUCGGCUGAUGCCUUCAAA [A33U G44U C50U U54G U55A U56C G62U C70U],< 1e-05 s⁻¹,,,
AUAAAAGCGCCAGAACUACAGAAAUGUAGUUGUCGAGGAGGAGGUUUAUCGAAUUUUCGGCGGACGCCUCAAAA [A33U U65C C71A],< 1e-05 s⁻¹,,,
AUAAAAGCGCCAGAACUACAGAAAUGUAGUUGACUAGUAGGAGGUUUAUCGAAUUUUCGGCGGUUGCCUCCAAA [G35U G38U A64U],< 1e-05 s⁻¹,< 1e-05 s⁻¹,,< 1e-05 s⁻¹
AUAAAAGCGCCAGAACUACAGAAAUGUAGUUGAAGAGGAGGAGGUUUAUCGAAUUUUCGGCGGAUCCCUCCAAA [C34A G66C],< 1e-05 s⁻¹,< 1e-05 s⁻¹,,< 1e-05 s⁻¹
AUAAAAGCGCCAGAACUACAGAAAUGUAGUUGAGGAGGAUAAGGUUUAUCGAAUUUUUGGCGGAUGCCUCCAAA [C34G G40U G41A C58U],< 1e-05 s⁻¹,< 1e-05 s⁻¹,,
AUAAAAGCGCCAGAACUACAGAAAUGUAGUUGAGGAGGAGGAGGUUUAUCGAAUUUUCGGCGGCUGCCCCCAAA [C34G A64C U69C],< 1e-05 s⁻¹,,,
AUAAAAGCGCCAGAACUACAGAAAUGUAGUUGGCGAGCAGGAGGUUUAUCGAAUUUCCAGCGGAUGCCUCCAAA [A33G G38C U57C G59A],< 1e-05 s⁻¹,,< 1e-05 s⁻¹,
AUAAAAGCGCCAGAACUACAGAAAUGUAGUUGAUGAGGAGGCGGUUUAUCGAAUUUUCAGCGGAUGCCUCCAAA [C34U A42C G59A],< 1e-05 s⁻¹,,< 1e-05 s⁻¹,
AUAAAAGCGCCAGAACUACAGAAAUGUAGUUGACCAGGAGGAGGUUUAUCGAAUUUUCGGCGGAUGCCCCCAAA [G35C U69C],< 1e-05 s⁻¹,< 1e-05 s⁻¹,< 1e-05 s⁻¹,< 1e-05 s⁻¹
AUAAAAGCGCCAGAACUACAGAAAUGUAGUUGACUGGGAGGAGGUUUAUCGAAUUUUCGGAGGAUGCCUCCAAA [G35U A36G C61A],< 1e-05 s⁻¹,,,
AUAAAAGCGCCAGAACUACAGAAAUGUAGUUGCCGAAGAGGAGGUUUAUCGAAUUCUCGGCGGAUGCCUCCAAA [A33C G37A U56C],< 1e-05 s⁻¹,,,
AUAAAAGCGCCAGAACUACAGAAAUGUAGUUGAUGAGGAGGAGCUUUAUCGAAUUUUCGGCGUCUGCCUCCAAA [C34U G44C G63U A64C],< 1e-05 s⁻¹,,,
AUAAAAGCGCCAGAACUACAGAAAUGUAGUUGACCAGGAGGAGGGUUAUCGAAUUUCCUGCGGAUGCCUCCAAA [G35C U45G U57C G59U],< 1e-05 s⁻¹,,,
AUAAAAGCGCCAGAACUACAGAAAUGUAGUUGAAGAGGAGGAGGUUGAUCGAAAUUUCGGCGGAUGCCUCGAAA [C34A U47G U54A C71G],< 1e-05 s⁻¹,,,
AUAAAAGCGCCAGAACUACAGAAAUGUAGUUGGCGAGGAGGAGGUCUAUCGAAGUUUCGUCGGAUGCCUCCAAA [A33G U46C U54G G60U],< 1e-05 s⁻¹,,,
AUAAAAGCGCCAGAACUACAGAAAUGUAGUUGAUGAGGUGGAGGUUUAUCGAAUUUUAGGCGGAUGCCUCCAAA [C34U A39U C58A],< 1e-05 s⁻¹,,,
AUAAAAGCGCCAGAACUACAGAAAUGUAGUUGCCGAGGAGGAGGUUUAACGAAUUUUCGGCGGAUGCCUCCAAA [A33C U49A],< 1e-05 s⁻¹,,,
